Reference: patent US20170304437A1 (ALLIGATOR BIOSCIENCE, published 2017)
Numbering of substitutions follows the chain as printed. Where two headings read alike, the source gives them in different places.

B1: Bispecific polypeptide 1132/1139 (bispecific antibody, human IgG1, kappa)
light: DIQMTQSPSSLSASVGDRVTITCRASQSISSYLNWYQQKPGKAPKLLIYAASSLQSGVPSRFSGSGSGTDFTLTISSLQPEDFATYYCQQYGRNPPTFGQGTKLEIKRTVAAPSVFIFPPSDEQLKSGTASVVCLLNNFYPREAKVQWKVDNALQSGNSQESVTEQDSKDSTYSLSSTLTLSKADYEKHKVYACEVTHQGLSSPVTKSFNRGECSGGGGSGGGGSAPLKIQAYFNETADLPCQFANSQNLSLSELVVFWQDQENLVLNEVYLGKERFDSVDSKYMGRTSFDSDSWTLRLHNLQIKDKGRYQCIIHHKKPTGMINIHQMNSELSVLA
heavy: EVQLLESGGGLVQPGGSLRLSCAASGFTFSSYAMSWVRQAPGKGLEWVSGIGSYGGGTYYADSVKGRFTISRDNSKNTLYLQMNSLRAEDTAVYYCARYVNFGMDYWGQGTLVTVSS[human IgG1 constant region not shown]
B2: Bispecific polypeptide 1107/1145 (bispecific antibody, human IgG1, kappa)
light: B1 light with R93V, N94Y, P96F
heavy: [about 100 residues not shown]RVWGFDYWGQGTLVTVSS[human IgG1 constant region not shown]
notes: Anti-CD40 IgG1 with CD86 mutant 1040 at the C terminus of the light chain
B3: Bispecific polypeptide 1150/1152 (bispecific antibody, human IgG1, kappa)
light: B1 light with R18H, R93S, N94A
heavy: B1 heavy with S53G, Y54S, G55S, G56S, G57Y, Y59S, V100Y, N101S, F102Y, G103H
B4: Bispecific polypeptide 1136/1143 (bispecific antibody, human IgG1, kappa)
light: DIQMTQSPSSLSASVGDRVTITCRASQSISSYLNWYQQKPGKAPKLLIYAASSLQSGVPSRFSGSGSGTDFTLTISSLQPEDFATYYCQQAYYAGLFTFGQGTKLEIKRTVAAPSVFIFPPSDEQLKSGTASVVCLLNNFYPREAKVQWKVDNALQSGNSQESVTEQDSKDSTYSLSSTLTLSKADYEKHKVYACEVTHQGLSSPVTKSFNRGECSGGGGSGGGGSAPLKIQAYFNETADLPCQFANSQNLSLSELVVFWQDQENLVLNEVYLGKERFDSVDSKYMGRTSFDSDSWTLRLHNLQIKDKGRYQCIIHHKKPTGMINIHQMNSELSVLA
heavy: [about 100 residues not shown]YVFGIDYWGQGTLVTVSS[human IgG1 constant region not shown]

Experiments:
[1] = target: T1, CD40-Fc (R&D #1493-CD) (human, UniProt P25942 part only); assay: Biacore SPR, immobilised CD40-Fc (protocol of Example 7)
T1 construct: Bought reagent immobilised on the Biacore chip; also called human CD40; not shown: Fc part of the bought fusion
Method: (§1) CD40-Fc (R&D #1493-CD) was immobilized to the BIAcore sensorship, CMS, using conventional amine coupling. 0.5 uM Bispecific construct (957/530) was injected over immobilized CD40 for 3 minutes and the dissociation was followed for 3 minutes. 2.17 uM CTLA4-Fc (Orencia, Bristol-Mayers Squibb) was injected over the CD40-Bispecific complex for 3 minutes and the dissociation phase was followed for 3 minutes. The chip was finally regenerated using 10 mM Glycine, pH 1.7. A Biacore 3000 instrument was used according to the manufacturer's protocols.
(§2) The six different exemplary bispecific polypeptides from Example 13 were tested for their ability to bind to both CD40 and CTLA-4. This was assessed by Surface Plasmon Resonance using the same protocol as in Example 7 above.

[2] = target: T2, CD40-Fc (Ancell # 504-820) (human, UniProt P25942 part only); assay: binding ELISA on coated CD40-Fc (protocol of Example 7), sample titrated, anti-human IgG Fc-HRP
T2 construct: Bought reagent; also called human CD40; not shown: Fc part of the bought fusion

[3] = target: T3, CTLA4-Fc (Orencia, Bristol-Mayers Squibb) (human, UniProt P16410 38-152); assay: Biacore SPR, CTLA4-Fc injected over bispecific held on immobilised CD40-Fc (protocol of Example 7)
T3 construct: Commercial drug Orencia; Biotinylated in the dual ELISA; also called soluble CTLA-4; human CTLA-4; not shown: Fc part of Orencia
Method: as §1, §2

[4] = target: T4, human CTLA4-Fc (Fitzgerald #30R-CD152) (human, UniProt P16410 38-152); assay: binding ELISA on coated CTLA4-Fc (protocol of Example 7), sample titrated, anti-human IgG Fc-HRP
T4 construct: Bought reagent; also called biotinylated-CTLA4; human CTLA-4 (Fitzgerald); not shown: Fc part of the bought fusion

[5] = target: T4, human CTLA4-Fc (Fitzgerald #30R-CD152); assay: as above; remark: listed apart in the source
[6] = target: T2, CD40-Fc (Ancell # 504-820); assay: binding ELISA on coated CD40-Fc (protocol of Example 7), sample titrated, anti-human IgG Fc-HRP; remark: listed apart in the source
[7] = target: T4, human CTLA4-Fc (Fitzgerald #30R-CD152); assay: binding ELISA on coated CTLA4-Fc (protocol of Example 7), sample titrated, anti-human IgG Fc-HRP; remark: listed apart in the source
[8] = target: T2, CD40-Fc (Ancell # 504-820); assay: binding ELISA on coated CD40-Fc (protocol of Example 7), sample titrated, anti-human IgG Fc-HRP; remark: listed apart in the source
[9] = target: T4, human CTLA4-Fc (Fitzgerald #30R-CD152); assay: binding ELISA on coated CTLA4-Fc (protocol of Example 7), sample titrated, anti-human IgG Fc-HRP; remark: listed apart in the source

T2 sequence (P25942 21-193 limits assumed): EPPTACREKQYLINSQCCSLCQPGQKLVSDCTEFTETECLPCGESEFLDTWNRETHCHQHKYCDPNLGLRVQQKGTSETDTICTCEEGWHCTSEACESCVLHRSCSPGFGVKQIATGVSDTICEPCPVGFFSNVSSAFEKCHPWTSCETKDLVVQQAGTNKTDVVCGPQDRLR
T4 sequence (P16410 38-152 limits assumed): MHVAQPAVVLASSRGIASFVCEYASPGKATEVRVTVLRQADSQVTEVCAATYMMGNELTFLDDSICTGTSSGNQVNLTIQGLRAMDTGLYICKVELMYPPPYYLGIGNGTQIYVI

| Binder | Kd [1] [nM] | koff [1] [s⁻¹] | kon [1] [M⁻¹ s⁻¹] | EC50 (read off the curve) [2] [nM] | Kd [3] [nM] | koff [3] [s⁻¹] | kon [3] [M⁻¹ s⁻¹] | EC50 (read off the curve) [4] [µg/mL] | EC50 (read off the curve) [5] [µg/mL] | EC50 (read off the curve) [6] [nM] | EC50 (read off the curve) [7] [µg/mL] | EC50 (read off the curve) [8] [nM] | EC50 (read off the curve) [9] [µg/mL] |
| --- | --- | --- | --- | --- | --- | --- | --- | --- | --- | --- | --- | --- | --- |
| B1 | 6.2 | 0.00844 | 1.36e+06 | ~3 | 2.92 | 0.00311 | 1.06e+06 | ~0.02 | – | – | – | – | – |
| B2 | – | 0.00117 | 347000 | – | 3.05 | 0.0031 | 1.02e+06 | – | ~0.02 | ~0.6 | – | – | – |
| B3 | 2.54 | 0.00326 | 1.28e+06 | – | 4.07 | 0.00312 | 765000 | – | – | – | ~0.05 | ~0.3 | – |
| B4 | 38.9 | 0.00563 | 145000 | – | – | – | – | – | – | – | – | – | ~0.02 |
